According to patent US20060177831A1 (published 2006):

Experiments:
[1] = molecular target: T1, c-MET extracellular domain (ECD)/Fc chimera (human, UniProt P08581 25-932); assay: binding ELISA on c-MET ECD/Fc, Q-pure
T1 construct: Bought (R&D Systems, carrier free); also called c-MET ECD/Fc; c-MET-ECD/Fc fusion; not shown: immunoglobulin Fc domain

[2] = molecular target: T1, c-MET extracellular domain (ECD)/Fc …; assay: binding ELISA on c-MET ECD/Fc, NiNTA-pure
[3] = molecular target: T1, c-MET extracellular domain (ECD)/Fc …; assay: AlphaScreen competition with bn-HGF for c-MET ECD/Fc, Q-pure
[4] = molecular target: T1, c-MET extracellular domain (ECD)/Fc …; assay: AlphaScreen competition with bn-HGF for c-MET ECD/Fc, NiNTA-pure

T1 sequence (P08581 25-932, change not shown): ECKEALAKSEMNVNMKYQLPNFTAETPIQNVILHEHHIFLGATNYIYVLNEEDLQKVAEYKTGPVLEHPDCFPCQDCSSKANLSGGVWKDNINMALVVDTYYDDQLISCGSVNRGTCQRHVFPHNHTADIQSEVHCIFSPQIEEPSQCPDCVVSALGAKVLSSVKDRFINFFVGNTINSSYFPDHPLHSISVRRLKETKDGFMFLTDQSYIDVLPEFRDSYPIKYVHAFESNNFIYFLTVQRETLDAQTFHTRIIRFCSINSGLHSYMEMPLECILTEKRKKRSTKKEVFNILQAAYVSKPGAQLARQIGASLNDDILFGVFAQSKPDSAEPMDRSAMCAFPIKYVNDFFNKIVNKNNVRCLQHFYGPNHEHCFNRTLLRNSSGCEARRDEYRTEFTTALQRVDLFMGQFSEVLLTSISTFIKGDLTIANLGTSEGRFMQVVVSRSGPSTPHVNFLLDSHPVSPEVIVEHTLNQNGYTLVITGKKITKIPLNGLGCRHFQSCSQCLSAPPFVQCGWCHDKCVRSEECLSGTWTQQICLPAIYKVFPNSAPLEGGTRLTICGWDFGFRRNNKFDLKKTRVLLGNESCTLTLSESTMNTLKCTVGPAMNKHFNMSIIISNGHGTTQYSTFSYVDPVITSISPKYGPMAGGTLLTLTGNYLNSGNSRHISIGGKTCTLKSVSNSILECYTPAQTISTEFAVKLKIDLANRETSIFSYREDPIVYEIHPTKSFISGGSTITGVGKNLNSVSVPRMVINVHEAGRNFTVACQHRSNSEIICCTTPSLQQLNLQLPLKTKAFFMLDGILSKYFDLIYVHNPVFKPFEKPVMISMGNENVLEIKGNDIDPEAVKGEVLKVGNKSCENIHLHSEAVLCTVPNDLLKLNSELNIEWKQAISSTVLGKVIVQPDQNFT

B1: Anti-c-MET recombined Avimer RecM01 (dimer) (designed binder)
chain: CPAGQFTCRSTNRCIPLQWVCDGDNDCEDSSDESPAICATTGPTSLQKASAAYPYDVPDYAPGLEASGGSCESNEFQCRSTGRCVPVAWVCDGDNDCEDSSDEKNCKAPTSLQ
notes: Two A domains in one chain; Assayed protein also bears HA and 6His tags; also called C409
[1]
  Kd: 0.3 nM
[2]
  Kd: 2.4 nM
[3]
  IC50: 1 nM
[4]
  IC50: 2 nM

B2: Anti-c-MET recombined Avimer monomer RecM05 (designed binder)
chain: CHPTAEFECHSTGRCIPVDWLCDGDNDCEDSSDEKNCKAHTSLQ
notes: Assayed protein also bears HA and 6His tags; also called C413
[1]
  Kd: 2 nM
[2]
  Kd: 9.7 nM
[3]
  IC50: 23 nM
[4]
  IC50: 15 nM

B3: Anti-c-MET Avimer monomer M05 (designed binder)
chain: CNTTQFSCRSTNRCIPLDWQCDGVTDCEDNSDEASCSAPASEPPGSLSLQ
notes: Assayed protein also bears HA and 6His tags; also called C132
[2]
  Kd: 69 nM
[4]
  IC50: 392 nM
